Among the data in a collection of fitness landscapes (doi:10.1126/science.1257360) are enrichment ratio values, retold here.

This is one part of the list. Some results are limits rather than exact numbers.

B1: PhoQ; a variant is named by its letters at X, in order, P23837 (parent)
chain: MKKLLRLFFPLSLRVRFLLATAAVVLVLSLAYGMVALIGYSVSFDKTTFRLLRGESNLFYTLAKWENNKLHVELPENIDKQSPTMTLIYDENGQLLWAQRDVPWLMKMIQPDWLKSNGFHEIEADVNDTSLLLSGDHSIQQQLQEVREDDDDAEMTHSVAVNVYPATSRMPKLTIVVVDTIPVELKSSYMVWSWFIYVLSANLLLVIPLLWVAAWWSLRPIEALAKEVRELEEHNRELLNPATTRELTSLVRNLNRLLKSERERYDKYRTTLTDLTHSLKTPLXXLQXXLRSLRSEKMSVSDAEPVMLEQISRISQQIGYYLHRASMRGGTLLSRELHPVAPLLDNLTSALNKVYQRKGVNISLDISPEISFVGEQNDFVEVMGNVLDNACKYCLEFVEISARQTDEHLYIVVEDDGPGIPLSKREVIFDRGQRVDTLRPGQGVGLAVAREITEQYEGKIVAGESMLGGARMEVIFGRQHSAPKDE

This assay covers variants of B1. Description: enrichment ratio after two sorts for PhoP signalling (ratio (wild type AVST 3.29)); higher = more functional. As to conditions: with PhoP (E. coli).
On to TLLR, for which the enrichment ratio was at most 0.25.
Turning to RVKT, the enrichment ratio is at most 0.25.
On to VANW, for which the enrichment ratio is at most 0.25.
For the variant DHVS, the enrichment ratio is at most 0.25.
Take MNFI: the enrichment ratio was 2.14.
Regarding VETI, the enrichment ratio was at most 0.25.
RAQQ: the enrichment ratio was at most 0.25.
As to GLNN, the enrichment ratio was at most 0.25.
As for MTYF, the enrichment ratio was found to be 7.02.
As for NITR, the enrichment ratio was at most 0.25.
For the variant HWNA, the enrichment ratio was at most 0.25.
Next, YAWM: at most 0.25; GKMM: at most 0.25.
For the variant NSQF, the enrichment ratio was at most 0.25.
Consider FYYN, for which the enrichment ratio was at most 0.25.
Take ADPQ: the enrichment ratio is at most 0.25.
Next, YQHF: at most 0.25; YGFA: at most 0.25.
The value for HPIC was at most 0.25.
Consider ASSE, for which the enrichment ratio is 10.8.
As to TWNR, the enrichment ratio was at most 0.25.
Turning to FELS, the enrichment ratio is 8.05.
Regarding TLPM, the enrichment ratio is at most 0.25.
The value for EVTN was at most 0.25; that for IFDL was at most 0.25; that for RPTV was at most 0.25.
On to PTAL, for which the enrichment ratio was at most 0.25.
As to FECD, the enrichment ratio was at most 0.25.
Consider MNKH, for which the enrichment ratio was at most 0.25.
Turning to GMPT, the enrichment ratio is at most 0.25.
In the case of PTGS, the enrichment ratio is at most 0.25.
The value for HSCL was 7.06; that for AFEL was at most 0.25.
With EKAY, the enrichment ratio was at most 0.25.
In the case of RYTK, the enrichment ratio was at most 0.25.
As to KAQM, the enrichment ratio was at most 0.25.
On to LIIR, for which the enrichment ratio is at most 0.25.
With VNDT, the enrichment ratio was at most 0.25.
Turning to DDKV, the enrichment ratio was at most 0.25.
The value for SDCL was 1.46; that for TFGV was at most 0.25; that for TTQQ was 21.5.
With QLPG, the enrichment ratio was at most 0.25.
Regarding SREV, the enrichment ratio is at most 0.25.
As to ITPL, the enrichment ratio was at most 0.25.
The value for SWHK was at most 0.25; that for SHKL was at most 0.25; that for FSFA was at most 0.25.
The value for WRNN was at most 0.25; that for GPPD was at most 0.25; that for EFWI was at most 0.25.
Regarding GSSL, the enrichment ratio worked out at 8.1.
LGRA: the enrichment ratio was at most 0.25.
Next, ECPC: at most 0.25; GHRF: at most 0.25; NLED: at most 0.25.
For AQPE, the enrichment ratio was at most 0.25.
In the case of KMSE, the enrichment ratio is at most 0.25.
As to HDCY, the enrichment ratio was at most 0.25.
Take AFYD: the enrichment ratio was at most 0.25.
For IWHW, the enrichment ratio is at most 0.25.
For the variant DARH, the enrichment ratio is at most 0.25.
Regarding MLVD, the enrichment ratio is at most 0.25.
Regarding FGIA, the enrichment ratio was at most 0.25.
In the case of ERLR, the enrichment ratio was at most 0.25.
AEHI: the enrichment ratio turned out to be 1.21.
For IYYG, the enrichment ratio is at most 0.25.
The value for TTEL was 16.6.
Regarding VYCY, the enrichment ratio was at most 0.25.
In the case of ELVN, the enrichment ratio is at most 0.25.
Regarding FLMH, the enrichment ratio is at most 0.25.
For VQDR, the enrichment ratio is at most 0.25.
Turning to MRMM, the enrichment ratio was at most 0.25.
Next, QRTN: at most 0.25.
On to ENNI, for which the enrichment ratio was at most 0.25.
Turning to RTHR, the enrichment ratio is 0.299.
Next, ATPL: 5.31; VPFA: at most 0.25.
As to TFGM, the enrichment ratio came out at 1.64.
On to EHIH, for which the enrichment ratio was at most 0.25.
In the case of SEGL, the enrichment ratio was 3.21.
For the variant TTCF, the enrichment ratio was found to be 17.7.
The value for EPLS was at most 0.25.
For IEHI, the enrichment ratio is at most 0.25.
MMYN: the enrichment ratio is at most 0.25.
Take TNCR: the enrichment ratio is 0.942.
With NQSK, the enrichment ratio was at most 0.25.
KMHL: the enrichment ratio was at most 0.25.
As for RETV, the enrichment ratio is at most 0.25.
Next, TDNM: at most 0.25; MPRP: at most 0.25; QIRG: at most 0.25.
NAVH: the enrichment ratio is at most 0.25.
Turning to MNYM, the enrichment ratio came to 8.99.
As to DELS, the enrichment ratio is at most 0.25.
Consider HRMW, for which the enrichment ratio was at most 0.25.
As for ATPC, the enrichment ratio is at most 0.25.
Regarding MSEE, the enrichment ratio is at most 0.25.
For RAKK, the enrichment ratio was at most 0.25.
Take QNES: the enrichment ratio was at most 0.25.
Take IKDA: the enrichment ratio is at most 0.25.
As for AQKG, the enrichment ratio was at most 0.25.
WAHW: the enrichment ratio was at most 0.25.
Consider HLPW, for which the enrichment ratio was at most 0.25.
As to TSGD, the enrichment ratio came to 0.774.
Take MRNL: the enrichment ratio was at most 0.25.
Consider DGHL, for which the enrichment ratio is at most 0.25.
On to DQLA, for which the enrichment ratio was at most 0.25.
For the variant LWKK, the enrichment ratio is at most 0.25.
As for AEMG, the enrichment ratio is 14.3.
For FYLV, the enrichment ratio was at most 0.25.
In the case of YHFM, the enrichment ratio is at most 0.25.
On to RTRA, for which the enrichment ratio is at most 0.25.
LYMR: the enrichment ratio is at most 0.25.
Next, KQVY: at most 0.25.
QATV: the enrichment ratio is at most 0.25.
As for EHGS, the enrichment ratio was at most 0.25.
In the case of EFRD, the enrichment ratio was at most 0.25.
For PYYP, the enrichment ratio was at most 0.25.
Next, TDWF: at most 0.25.
For MGNW, the enrichment ratio is at most 0.25.
As to TSAF, the enrichment ratio stood at 7.11.
Turning to EDGF, the enrichment ratio was at most 0.25.
Next, WENH: at most 0.25; AHRQ: at most 0.25.
Take GMFI: the enrichment ratio was at most 0.25.
Consider GNHK, for which the enrichment ratio is at most 0.25.
As to MVNC, the enrichment ratio is at most 0.25.
On to TWLY, for which the enrichment ratio was at most 0.25.
PTLI: the enrichment ratio was at most 0.25.
Consider VERT, for which the enrichment ratio is at most 0.25.
Next, DTLK: at most 0.25; PNHN: at most 0.25.
Next, WGDQ: at most 0.25.
Next, QCNF: at most 0.25; YACF: at most 0.25; MQHM: at most 0.25.
Take NISE: the enrichment ratio is at most 0.25.
For the variant RYQM, the enrichment ratio was at most 0.25.
For the variant YWKQ, the enrichment ratio was at most 0.25.
The value for FFDY was at most 0.25; that for INYF was at most 0.25; that for DRLI was at most 0.25.
The value for FSGF was at most 0.25; that for VMVL was at most 0.25.
Next, RGWS: at most 0.25.
YCTY: the enrichment ratio was 0.34.
HLSR: the enrichment ratio was at most 0.25.
For VNAA, the enrichment ratio is at most 0.25.
As for TNMP, the enrichment ratio is at most 0.25.
As to QDLR, the enrichment ratio was at most 0.25.
LRRR: the enrichment ratio was at most 0.25.
Turning to SSIC, the enrichment ratio is 5.56.
